# Out of some 350,000 compounds screened, about 700 (0.2%) were called active. Inconclusive means that the source gave no clear call. Such entries were picked first, then a sample of the others. The call rests on the fitted dose curve; in most records, active means well fitted inhibition curve with a large enough effect; inconclusive means small, poorly fitted or top-dose-only effect; inactive means flat fitted curve, though single readings scatter. No potency is given beside an inconclusive call; the fits are too rough.
# Molecular target: RecQ-like DNA helicase BLM (Homo sapiens) (UniProt P54132)
# UniProt P54132, sequence (P54132 whole entry, looked up): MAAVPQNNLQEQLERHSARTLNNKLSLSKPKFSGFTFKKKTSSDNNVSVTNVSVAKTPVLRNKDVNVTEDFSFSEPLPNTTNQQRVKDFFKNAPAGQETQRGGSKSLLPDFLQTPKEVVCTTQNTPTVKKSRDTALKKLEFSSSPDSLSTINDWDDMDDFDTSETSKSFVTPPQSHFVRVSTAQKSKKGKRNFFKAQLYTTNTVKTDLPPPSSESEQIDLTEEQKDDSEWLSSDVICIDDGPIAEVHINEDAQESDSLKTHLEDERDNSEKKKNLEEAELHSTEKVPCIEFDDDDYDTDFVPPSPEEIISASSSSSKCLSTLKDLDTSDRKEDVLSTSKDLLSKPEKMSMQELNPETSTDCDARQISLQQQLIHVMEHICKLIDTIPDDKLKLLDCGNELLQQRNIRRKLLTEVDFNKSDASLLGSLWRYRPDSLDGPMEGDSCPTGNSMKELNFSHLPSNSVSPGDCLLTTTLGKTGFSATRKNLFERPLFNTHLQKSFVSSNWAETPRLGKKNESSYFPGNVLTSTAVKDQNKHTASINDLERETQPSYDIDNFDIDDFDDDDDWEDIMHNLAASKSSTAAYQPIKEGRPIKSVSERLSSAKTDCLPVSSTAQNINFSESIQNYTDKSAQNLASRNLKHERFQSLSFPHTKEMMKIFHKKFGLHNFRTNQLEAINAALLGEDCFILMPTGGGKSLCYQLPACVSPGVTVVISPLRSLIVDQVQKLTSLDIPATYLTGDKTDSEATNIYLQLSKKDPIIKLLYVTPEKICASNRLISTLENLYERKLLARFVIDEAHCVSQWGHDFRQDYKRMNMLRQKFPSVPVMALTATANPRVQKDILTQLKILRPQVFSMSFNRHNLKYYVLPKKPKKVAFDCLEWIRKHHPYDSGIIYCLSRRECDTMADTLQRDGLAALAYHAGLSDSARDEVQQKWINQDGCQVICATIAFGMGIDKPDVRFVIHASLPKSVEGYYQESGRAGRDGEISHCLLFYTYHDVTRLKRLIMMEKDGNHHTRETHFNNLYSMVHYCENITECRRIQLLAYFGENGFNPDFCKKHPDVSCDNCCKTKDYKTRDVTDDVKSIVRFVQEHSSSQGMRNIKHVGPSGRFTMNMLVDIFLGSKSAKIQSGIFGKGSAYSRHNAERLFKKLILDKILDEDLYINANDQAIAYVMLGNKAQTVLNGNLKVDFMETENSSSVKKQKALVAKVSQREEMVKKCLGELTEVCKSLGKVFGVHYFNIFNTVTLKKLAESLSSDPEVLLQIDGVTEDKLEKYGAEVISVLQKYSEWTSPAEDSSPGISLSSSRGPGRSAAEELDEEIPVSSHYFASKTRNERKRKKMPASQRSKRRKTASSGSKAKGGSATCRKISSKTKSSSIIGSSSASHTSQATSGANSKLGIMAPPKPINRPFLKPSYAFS
# Experiment: qHTS Assay for Inhibitors of Bloom's syndrome helicase (BLM); further: nearly all actives have a fitted effect of over 35% in size;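 on activity change, negative = inhibition: plate controls were vehicle for no effect and no enzyme for full effect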
# Settings: recombinant BLM DNA unwinding, fluorescence dequenching; series mostly up to 56.1 µM; activity change, negative = inhibition: at the top concentration
# Potency means the concentration at half of the fitted maximal effect; tags describe the fitted curve by direction and shape.
Structure (SMILES),"activity change, negative = inhibition",Potency
COC(=O)NC(c1cccc(F)c1)[C@@]1(C(=O)OC)CCCC1=O (some centres undefined),inactive: -0.529% [at 12.4 µM],
Cc1cccc(NC(=O)CN2C(=O)S/C(=C\c3ccc(O)c([N+](=O)[O-])c3)C2=O)c1,,"inconclusive [inhibitor, single point]"
Oc1ccc(N=Cc2sc3ccccc3c2Cl)cc1,,active: 20 µM
COC(C(=O)C(O)C(C)O)C1Cc2cc3cc(OC4CC(OC5CC(O)C(O)C(C)O5)C(O)C(C)O4)c(C)c(O)c3c(O)c2C(=O)C1OC1CC(OC2CC(OC3CC(C)(O)C(O)C(C)O3)C(O)C(C)O2)C(O)C(C)O1 (centres undefined),inactive: -2.26%,
Cc1ccc(C)n1-c1cccc(C(=O)O)c1,,"inconclusive [inhibitor, single point]"
NS(=O)(=O)c1ccc(CNC(=O)Cc2cccs2)cc1,,"inconclusive [inhibitor, partial curve]"
Cn1nc(-c2ccc(Cl)cc2)nc2c(=O)n(C)c(=O)nc1-2,,active: 5.62 µM
O=C(N/N=C/c1cc(Cl)ccc1O)c1ccc(Br)cc1,,"inconclusive [inhibitor, partial curve]"
CCn1c(SCC(=O)N/N=C/C=C\c2ccco2)nc2ccccc21,,"inconclusive [inhibitor, partial curve]"
CCOC(=O)c1nnn(CC(=O)N2N=C(c3ccc(Cl)cc3)CC2c2ccccc2)c1C(=O)OCC (centres undefined),inactive: 0.796%,
CCc1cc(=O)oc2cc(C)c(CN3CCCC3)c(O)c12,,active: 11.2 µM
CC(C)=CCc1c(O)cc2oc3c(CC=C(C)C)c(O)c(O)c(CC=C(C)C)c3c(=O)c2c1O,,"inconclusive [inhibitor, single point]"
Cc1ccc2c(c1)c(=O)c1c3n2CCN(C(=O)CCl)C3CC1 (centres undefined),,"inconclusive [inhibitor, partial curve]"
CS(=O)(=O)N(CC(=O)N1CCN(Cc2ccccc2)CC1)c1ccccc1F,,"inconclusive [inhibitor, single point]"
N#C/C(=C\c1cc2ccccc2nc1N1CCCCC1)C(N)=O,,"inconclusive [inhibitor, single point]"
COc1ccc(C2/C=C\CN(C(=O)C3CCCCC3)C(Cc3ccccc3)C(=O)N2Cc2ccc(F)cc2)cc1 (centres undefined),inactive: -9.9%,
NC(=S)n1[nH]c(-c2ccc([N+](=O)[O-])cc2)c(N=Nc2cccc([N+](=O)[O-])c2)c1=O,,active: 17.8 µM
Nc1cc2nsnc2cc1Br,,active: 3.98 µM
COc1ccc(N=C2NC(=O)/C(=C\c3ccco3)S2)cc1,,"inconclusive [inhibitor, partial curve]"
Cn1c2ccccc2c(=O)c2c(=O)n(Cc3ccco3)c(COc3ccccc3)nc21,,active: 8.91 µM
CCN(CC)S(=O)(=O)c1cccc(-n2c(O)c(C=Nc3ccccc3C(=O)O)c3ccccc3c2=O)c1,,"inconclusive [inhibitor, partial curve]"
COC(=O)C(CC(=O)c1ccc(Br)cc1)n1nc(C)cc1C (centres undefined),inactive: -0.705%,
Cc1ccc(S(=O)(=O)Nc2cc(=O)[nH]c(SCC(=O)Nc3cccc(C)c3)n2)cc1,inactive: -8.27%,

Structure (SMILES),"activity change, negative = inhibition",Potency
N#C/C(=C(/O)c1ccc(-c2cccc([N+](=O)[O-])c2)o1)c1nc2ccccc2s1,,"inconclusive [inhibitor, partial curve]"
NC(=O)c1ccc(N=Cc2ccc([N+](=O)[O-])s2)cc1,inactive: -3.27%,
Oc1ccc(/C=N/Nc2ccnc3cc(Cl)ccc23)cc1O,,active: 28.2 µM
COc1ccc(NC(=O)c2cc3c(-c4ccc(OC)c(OC)c4)nn(C)c3s2)cc1OC,,"inconclusive [inhibitor, partial curve]"
Cc1cc(C)n(CCc2nc(-c3ccco3)cs2)n1,,"inconclusive [inhibitor, single point]"
CCCCn1c(=O)[nH]c2nc3cc(N)ccc3nc2c1=O,,active: 5.62 µM
O=C(Nc1cccc(-c2nc3cccnc3s2)c1)C1c2ccccc2Oc2ccccc21,,active: 10 µM
O=C(O)c1ccc(/C=C/c2nc3sc4c(c3c(=O)[nH]2)CCC4)cc1,inactive: -2.1%,
Cc1ccc(S(=O)(=O)/C=C\C#N)cc1,inactive: -1.55%,
Cc1nc2c(-c3ccc(F)cc3)cnn2c(N)c1-c1ccccc1,,"inconclusive [inhibitor, single point]"
COc1cccc(NC(=S)NNC(=O)Cn2nc(C(F)(F)F)cc2C)c1,inactive: 0.654%,
Oc1ccc(NCc2cccc(OCc3ccccc3)c2)cc1,,"inconclusive [inhibitor, single point]"
CCN(CC)S(=O)(=O)c1ccc(N2CCCCC2)c(NC(=O)/C=C/c2ccc(OC)c(OC)c2)c1,inactive: -1.51%,
CCC1=NNc2cccc3c(OC)ccc1c23,,"inconclusive [inhibitor, partial curve]"
Cc1ccc(C)c(N=Cc2cc3c(cc2[N+](=O)[O-])OCO3)c1,,"inconclusive [inhibitor, partial curve, poor fit]"
COc1cc(NC(=O)c2cccs2)c(C(=O)OCC(=O)NCc2ccco2)cc1OC,,"inconclusive [inhibitor, single point]"
CC(C)C(C)(C#N)NC(=O)CSc1nc2scc(-c3ccco3)c2c(=O)n1-c1ccccc1 (centres undefined),,"inconclusive [inhibitor, single point]"
N=C1S/C(=C\c2ccc(-c3cccc(Cl)c3)o2)C(=O)N1c1nccs1,,"inconclusive [inhibitor, single point]"
CC(C)[C@@H]1[C@H]2CC[C@H](C2)[C@H]1N,inactive: -3.18%,
COc1cc(-c2nc3ccc(N4CCN(C)CC4)cc3[nH]2)cc(OC)c1OC,,active: 20 µM
O=C(O)CSc1cc(NS(=O)(=O)c2ccc(Br)cc2)c2ccccc2c1O,,"inconclusive [inhibitor, partial curve]"
O=C(O)C(C(=O)/C=C/c1ccco1)=C1SCCS1,inactive: -14.5%,
CC1(c2ccccc2)CC(C)(C)N2C(=O)/C(=C3\SC(=S)NC3=O)c3cccc1c32 (centres undefined),,"inconclusive [inhibitor, single point]"

Structure (SMILES),"activity change, negative = inhibition",Potency
CSCC[C@H](NC(=O)[C@@H](NC(=O)[C@H](CCC(=O)O)NC(=O)[C@H](CCSC)NC(=O)[C@H](CC(N)=O)NC(=O)[C@H](CCC(=O)O)NC(=O)[C@H](CC(N)=O)NC(=O)[C@H](CO)NC(=O)[C@H](C)N)[C@@H](C)O)C(=O)O,inactive: -6.48%,
CC(C)(C)c1ccc(-c2nc(SCC(=O)Nc3ccc(Cl)cc3)[nH]c(=O)c2C#N)cc1,,"inconclusive [inhibitor, single point]"
N[C@H]1CCN(O)C1=O,,inactive
CC1=C([N+](=O)[O-])C(c2ccc3c(c2)OCO3)N(C)C(=O)N1C (centres undefined),inactive: -6.02%,
COc1cc(CNc2ccc(O)cc2)cc(Br)c1OCc1ccccc1,,"inconclusive [inhibitor, single point]"
O=C1C(Cl)=C(N2CCC(C(=O)O)CC2)C(=O)c2ccccc21,inactive: -30%,
CC(C)(C)OC(=O)N1CC23CC(c4ccc(F)cc4)C(CC2S1(=O)=O)O3 (centres undefined),inactive: 0.255%,
CCn1c(SCC(=O)NC(=O)NCc2ccco2)nc2sc(C)c(C)c2c1=O,,"inconclusive [inhibitor, single point]"
CCNC(=O)Oc1ccc[nH]c1=O,,"inconclusive [inhibitor, single point]"
N#Cc1c(-c2cccs2)nc(SCc2ccc(Cl)cc2)[nH]c1=O,,active: 28.2 µM
COc1ccc(/C=N/NC(=O)c2cc(O)c(O)c(O)c2)cc1Cn1cc([N+](=O)[O-])cn1,,"inconclusive [inhibitor, partial curve, poor fit]"
COc1ccc(-c2ccc(C(c3c(C)[nH][nH]c3=O)c3c(C)[nH][nH]c3=O)o2)c([N+](=O)[O-])c1,,"inconclusive [inhibitor, single point]"
CCCCCC(=O)Cc1cc(O)cc2c1C(=O)Oc1cc(O)c(C(=O)O)c(CCCCC)c1O2,,"inconclusive [inhibitor, single point]"
CCCc1[nH]nc2c1C(c1ccc(OC)c(CSC3=NCCS3)c1)C(C#N)=C(N)O2 (centres undefined),,"inconclusive [inhibitor, partial curve]"
COc1ccc(C(=O)N2C(=S)NC(=O)/C2=C\c2ccc(C)cc2)cc1,,"inconclusive [inhibitor, single point]"
COc1ccccc1Oc1nc2c(c(=O)n(Cc3ccccc3F)c(=O)n2C)n1C,,"inconclusive [inhibitor, single point]"
O=C(N/N=C/C=C\c1ccco1)c1cccs1,,active: 17.8 µM
Nc1ccc2nc(-c3cc(Cl)c(N)c(Cl)c3)[nH]c2c1,,active: 14.1 µM
Cc1cc(=O)oc2cc(OCC(=O)N/N=C/c3ccccc3[N+](=O)[O-])ccc12,,"inconclusive [inhibitor, single point]"
CCS(=O)(=O)c1c([N+](=O)[O-])ncn1C,,"inconclusive [inhibitor, single point]"
Cc1ccc(-c2nnn3c2nc(NCCc2ccc(S(N)(=O)=O)cc2)c2ccccc23)cc1,,"inconclusive [inhibitor, partial curve]"
O=c1cc(-c2cc(O)c(O)c(O)c2)oc2cc(O)cc(O)c12,,"inconclusive [inhibitor, single point]"
Cc1ccc(NC(=O)CN2C(=O)S/C(=C/c3ccc(-c4cc(C(=O)O)ccc4C)o3)C2=O)cc1C,,"inconclusive [inhibitor, single point]"

# Source: PubChem BioAssay AID2528 (National Center for Advancing Translational Sciences (NCATS), 2010)
